According to the supplement of paper PMC12067093, “Discovery and optimisation of a covalent ligand for TRIM25 and its application to targeted protein ubiquitination” (Chemical Science, 2025):
Of roughly 21,000 targets only a part is listed; those with the largest changes were picked by preference.

Compound: CC1Cc2ccccc2N1C(=O)C1CCCN(C1)C(=O)CCl (mixture of isomers) [TRIM25 ligand 11 (diastereomer mixture)]
Test: probe-labelled cysteine peptide fold change vs DMSO (competition) (log2 fold change); higher = less target engagement (more negative = stronger competition)
Conditions: THP-1, incubation time: 4 h
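Also: competitive chemoproteomic profiling in live THP-1 cells with an iodoacetamide desthiobiotin (IA-DTB) probe, comparing probe-labelled peptide intensities in compound-treated cells against DMSO-treated controls.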

Target	probe-labelled cysteine peptide fold change (10 µM)	probe-labelled cysteine peptide fold change (50 µM)
BLM_P54132_704_SLCYQLPACVSPGVTVVISPLR (UniProt P54132)	-0.495	-0.176
ANXA7_P20073_413_TILQCALNR (UniProt P20073)	0.07	0.257
AP1B1_Q10567_433_YESVIATLCENLDSLDEPEAR (UniProt Q10567)	0.794	0.446
BAZ1B_Q9UIG0_1435_TEQCLVALLHK (UniProt Q9UIG0)	0.0176	0.12
ATP6V1H_Q9UI12_85_TFINLMTHICK (UniProt Q9UI12)	0.0544	-0.0133
ATXN2_Q99700_852_DSFIENSSSNCTSGSSKPNSPSISPSILSNTEHK (UniProt Q99700)	-0.097	-0.224
ARHGAP45_Q92619_469_TCVADAK (UniProt Q92619)	-0.0831	0.0512
AGPAT1_Q99943_229_RFTSGQCQVR (UniProt Q99943)	0.183	0.345
ATL3_Q6DD88_256+262_NHIHSCFSDVTCFLLPHPGLQVATSPDFDGK (UniProt Q6DD88)	0.0437	-0.00361
ANKRD17_O75179_672_TTANNDHTVLSLACAGGHLAVVELLLAHGADPTHR (UniProt O75179)	-0.046	-0.181
AP4S1_Q9Y587_122_VHIILDEMVLNGCIVETNR (UniProt Q9Y587)	0.0776	-0.00665
ATP13A1_Q9HD20_336_SPQENLVPCDVLLLR (UniProt Q9HD20)	-0.0527	0.0898
BIRC6_Q9NR09_62_DGCMHCDADGLHSLSYHPALNAILAVTSR (UniProt Q9NR09)	-0.224	-0.0432
AGL_P35573_126_VGADNHVLPLDCVTLQTFLAK (UniProt P35573)	-0.0129	0.0562
ALG1L2_C9J202_180_CLHELVK<|>ALG1L_Q6GMV1_92_CLHELVK<|>ALG1_Q9BT22_396_CLHELVK (UniProt Q9BT22+Q6GMV1+C9J202)	0.157	0.122
BABAM2_Q9NXR7_34_VGLDATNCLR (UniProt Q9NXR7)	-0.138	-0.073
ARHGEF18_Q6ZSZ5_887_SAMSEIEGIQSLICR (UniProt Q6ZSZ5)	-0.0479	0.0618
ARPC5_O15511_45_FVDEEDGGDGQAGPDEGEVDSCLR (UniProt O15511)	0.0584	0.116
BCAS3_Q9H6U6_442_GTSHVFPINPYGGQPCVR (UniProt Q9H6U6)	0.0264	0.0262

Target	probe-labelled cysteine peptide fold change (10 µM)	probe-labelled cysteine peptide fold change (50 µM)
BLM_P54132_396_LLDCGNELLQQR (UniProt P54132)	-0.00656	-0.235
AKAP1_Q92667_64_EPLPVEDVCPK (UniProt Q92667)	0.15	0.0642
ASCC2_Q9H1I8_276_HDFCYR (UniProt Q9H1I8)	0.106	0.0786
BCAS3_Q9H6U6_412_VQDICFSHDCR (UniProt Q9H6U6)	0.00552	0.251
BAZ1A_Q9NRL2_404_EDMECDDLK (UniProt Q9NRL2)	-0.247	-0.229
ANKRD50_Q9ULJ7_122_AQDSDTLCVGGFIR (UniProt Q9ULJ7)	-0.399	-0.88
BANK1_Q8NDB2_349_ELPTLLHCAAK (UniProt Q8NDB2)	-0.0861	0.105
AMBP_P02760_281_ECLQTCR (UniProt P02760)	0.607	0.447
AMPD2_Q01433_230_CGVPFTDLLDAAK (UniProt Q01433)	0.0113	0.0565
AGK_Q53H12_72_ATVFLNPAACK (UniProt Q53H12)	0.0656	0.0451
AGO2_Q9UKV8_787_FSSDELQILTYQLCHTYVR (UniProt Q9UKV8)	0.232	0.0285
ALG13_Q9NP73_86_ADLVISHAGAGSCLETLEK (UniProt Q9NP73)	0.371	-0.0635
ARHGEF12_Q9NZN5_921_FQTFVQDAESNPLCR (UniProt Q9NZN5)	0.0822	0.105
AKAP8L_Q9ULX6_128_LDMVPHLETDMMQGGVYGSGGERYDSYESCDSR (UniProt Q9ULX6)	-0.329	-0.712
ATP1A1_P05023_663_ACVVHGSDLK (UniProt P05023)	0.205	-0.125
AGL_P35573_234_WIQEHPECAYNLVNSPHLK (UniProt P35573)	0.0565	-0.0246
AHCYL1_O43865_292+293_QKFDNLYCCR (UniProt O43865)	-0.0193	-0.0771
BOP1_Q14137_620_LMPNCK (UniProt Q14137)	-0.0435	-0.0726
ATPAF1_Q5TC12_194_AQSCPTFLCALPR (UniProt Q5TC12)	-0.107	0.0875

Target	probe-labelled cysteine peptide fold change (10 µM)	probe-labelled cysteine peptide fold change (50 µM)
BOD1L1_Q8NFC6_876_CDMDSTNMDSNLKPEEVVHK (UniProt Q8NFC6)	-0.0761	-0.189
AK6_Q9Y3D8_122_KLTDNIQCEIFQVLYEEATASYK (UniProt Q9Y3D8)	0.286	0.108
ALDOA_P04075_73_VNPCIGGVILFHETLYQK (UniProt P04075)	0.199	0.0247
ANKRD44_Q8N8A2_810_KFIGNPFTPLHCAIINDHGNCASLLLGAIDSSIVSCRDDK (UniProt Q8N8A2)	-0.285	-0.0718
ATOX1_O00244_41_VCIESEHSMDTLLATLK (UniProt O00244)	-0.0316	-0.0141
ARPC1A_Q92747_13_SLHQFLLEPITCHAWNR (UniProt Q92747)	0.342	0.615
ARHGEF10_O15013_1030_STVMSLACTSQSLYAGLVNGAVASYAR (UniProt O15013)	0.349	0.118
ANKMY2_Q8IV38_227_MHYISCIFQK (UniProt Q8IV38)	0.128	0.21
AHCYL1_O43865_151_IVGCTHITAQTAVLIETLCALGAQCR (UniProt O43865)	0.221	0.0186
ARHGEF7_Q14155_490_TLGNVTYMSQVLIQCAGSEEK (UniProt Q14155)	0.0515	-0.0922
APOH_P02749_345_TDASDVKPC (UniProt P02749)	0.581	0.244
ANKRD17_O75179_714_GGHTSVVCYLLDYPNNLLSAPPPDVTQLTPPSHDLNR (UniProt O75179)	0.0617	-0.0914
APPL1_Q9UKG1_549_MTESHLLVTCDCLK (UniProt Q9UKG1)	0.138	0.222
AQR_O60306_1039_IIAMTCTHAALKR (UniProt O60306)	-0.207	0.0491
AMBP_P02760_277+281_ECLQTCR (UniProt P02760)	0.453	0.32
BLVRA_P53004_204_MTVCLETEKK (UniProt P53004)	-0.114	0.0392
B2M_P61769_100_DEYACR (UniProt P61769)	0.129	0.355
ARMT1_Q9H993_398_KWEFSVPFHQALNGFHPAPLCTIR (UniProt Q9H993)	-0.0702	0.0539
ALG2_Q9H553_70_CAGDWLPR (UniProt Q9H553)	-0.0109	-0.0398
